Experimental data published in PMC6162344 (Molecular Cell, 2018).

B1: CENP-C^[…]-SNAP (domain or fragment)
chain: not shown
modifications: biotinylated benzylguanin (Snap-biotin) on the SNAP tag
B2: CENP-U (natural protein)
chain: not shown

How the values were obtained:
CENP-LN = CENP-LN (human, UniProt Q8N0S6; Q96H22); test: pull-down
CENP-HI^Δ56KM = CENP-HI^Δ56KM (human, UniProt Q9H3R5; Q92674; Q9BS16; Q9NSP4); test: pull-down
CENP-Q = CENP-Q (human, UniProt Q7L2Z9 1-268); test: AUC
Sequence of CENP-Q (Q7L2Z9 whole entry): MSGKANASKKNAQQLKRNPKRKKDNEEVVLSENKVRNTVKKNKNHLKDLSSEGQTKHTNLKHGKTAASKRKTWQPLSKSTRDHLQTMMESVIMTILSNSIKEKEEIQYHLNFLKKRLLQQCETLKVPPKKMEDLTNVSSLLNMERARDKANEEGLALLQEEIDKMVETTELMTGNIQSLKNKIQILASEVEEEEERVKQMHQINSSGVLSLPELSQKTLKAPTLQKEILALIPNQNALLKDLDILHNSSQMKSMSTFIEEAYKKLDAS

Binder	binding result (CENP-LN)	binding result (CENP-HI^Δ56KM)	stoichiometry N (CENP-Q)
B1	binds	binds	–
B2	–	–	1
